In PubChem BioAssay AID886 (National Center for Advancing Translational Sciences (NCATS), 2007):
Out of some 73,000 compounds screened, about 2,500 (3.4%) were called active. Inconclusive results, whose numbers are uncertain, are shown with a selection of clear calls. The call rests on the fitted dose curve; in most records, active means well fitted inhibition curve with a large enough effect; inconclusive means small, poorly fitted or top-dose-only effect; inactive means no such curve, though single readings can be large or run the other way. Where the call is inconclusive, the potency comes from a doubtful curve fit.

Each compound was assayed against 3-hydroxyacyl-CoA dehydrogenase type-2 (Homo sapiens) (UniProt Q99714) (assay: qHTS Assay for Inhibitors of HADH2 (Hydroxyacyl-Coenzyme A Dehydrogenase, Type II)). Conditions: recombinant HADH2, NADH fluorescence, beta-hydroxybutyryl-CoA; activity change, negative = inhibition: at 57.1 µM (top of the series).
Method in brief: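 20 nM HADH2 + cpd, 15 min RT; add 1 mM NAD+/90 uM beta-hydroxybutyryl-CoA; kinetic fluorescence 360/450 nm, 4 min. Tris-HCl pH 9.0, 0.01% Tween-20.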
Further: nearly all actives have a fitted effect of over 60% in size.
On the % scale 0 is the no-effect control and ±100 the full control effect; potency means the concentration at half of the fitted maximal effect; tags describe the fitted curve by direction and shape.

UniProt Q99714, sequence (Q99714 whole entry, looked up): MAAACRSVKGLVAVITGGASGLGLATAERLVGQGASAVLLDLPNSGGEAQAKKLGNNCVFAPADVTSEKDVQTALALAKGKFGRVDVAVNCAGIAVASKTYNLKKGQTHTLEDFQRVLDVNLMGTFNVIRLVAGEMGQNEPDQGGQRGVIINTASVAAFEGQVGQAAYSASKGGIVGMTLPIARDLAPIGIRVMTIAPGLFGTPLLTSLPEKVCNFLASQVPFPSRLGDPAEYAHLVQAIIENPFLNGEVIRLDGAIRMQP
UniProt Q99714, sequence (Q99714 whole entry, looked up): as above

SMILES	Potency	activity change, negative = inhibition
Cn1c(=O)c2c(-c3ccccc3)n(-c3ccccc3O)cc2n(C)c1=O	inconclusive: 31.6 µM [inhibitor, single point]	
O=C(Cc1cccs1)N1CCN(c2nc(-c3ccc(Cl)cc3)cs2)CC1	inconclusive: 39.8 µM [inhibitor, single point]	
O=C(Nc1scc(-c2ccc(F)cc2)c1C(=O)O)c1ccco1	inactive	
c1cc2c3c(cccc3c1)NC1(CCCCCC1)N2	inconclusive: 3.16 µM [inhibitor, single point]	
O=c1cc(-c2ccccc2)[nH]c2nc(Cl)ccc12	active: 25.1 µM	
O=C(Cc1ccccc1)Nc1cccc(-c2nc3ncccc3o2)c1	inactive	
Cc1nc2oc3c(NCC4CCCO4)ncnc3c2c2c1COC(C)(C)C2 (configuration not stated)	inactive	
Cc1onc(-c2ccccc2)c1C(=O)Nc1sc2c(c1C(N)=O)CCC2	inconclusive: 20 µM [inhibitor, partial curve]	
O=S(=O)(c1ccccc1)c1ccc(NCc2ccco2)cc1	inconclusive: 6.31 µM [inhibitor, single point]	
COC(=O)[C@@]1(Cc2ccccc2)[C@H]2c3cc(C(=O)N(C)C)n(CCSCCO)c3C[C@H]2CN1C(=O)c1ccccc1	inactive	
Cn1cc(C(F)(F)F)nc1-c1ccc(OC[C@@H](O)CNCCOc2ccc(O)c(C(N)=O)c2)cc1	inconclusive: 25.1 µM [inhibitor, single point]	
Cc1nc(C)n(CC(O)COc2ccc(C(=O)c3ccccc3)cc2)n1 (configuration not stated)	inactive	
Cc1ccc(-c2nc(CN(C)C)cc(CN(C)C)c2O)cc1	active: 25.1 µM	
Cc1noc(C)c1C(=O)N1CCC2(CC1)CCN(C(c1ccccc1)c1ccccc1)CC2	inactive	
O=C(CC1Oc2ccccc2NC1=O)NCCCN1CCCC1=O (configuration not stated)	inconclusive: 20 µM [inhibitor, single point]	
CN1CCN(c2ncc3nc(-c4ccccc4)c(=O)n(Cc4cccs4)c3n2)CC1	inactive	
Cn1cnnc1SCC(=O)c1cc2ccccc2oc1=O	inconclusive: 15.8 µM [inhibitor, partial curve]	
CN(C)c1ccc(C=Nc2ccccc2C(N)=O)cc1	inconclusive: 39.8 µM [inhibitor, single point]	
Cc1c(Cc2ccccc2)c(=O)oc2c(C)c(OCc3nn[nH]n3)ccc12	active: 20 µM	
Cc1sc2nc(N)sc2c1C	inconclusive: 15.8 µM [inhibitor, partial curve]	
CCOC(=O)c1cnc2c(C(=O)OC)cccc2c1NCc1ccco1	inconclusive: 39.8 µM [inhibitor, single point]	
Cc1cc2oc(C(=O)NC3CCS(=O)(=O)C3)c(C)c2cc1C (configuration not stated)	inconclusive: 39.8 µM [inhibitor, single point]	
COc1ccc(CCNc2oc(-c3ccc(C)cc3)nc2C#N)cc1OC	inconclusive: 25.1 µM [inhibitor, partial curve]	
Cc1ccc2cc3cc(C(=O)N4CC(C)CC(C)C4)oc3nc2c1 (configuration not stated)	inconclusive: 39.8 µM [inhibitor, single point]	
COCCSc1ccccc1C(=O)Nc1cc(C)on1	inconclusive: 3.98 µM [inhibitor, full curve]	
Cc1ccc2c(c1)C(N1CCCC1=O)CC(c1ccco1)N2 (configuration not stated)	inactive	

SMILES	Potency	activity change, negative = inhibition
c1cnc2c(SCc3ccc(-c4nnco4)cc3)cccc2c1	inconclusive: 31.6 µM [inhibitor, single point]	
CCN1CCN(C(=O)c2oc(=O)c3ccccc3c2-c2ccc(C)cc2)CC1	inactive	
CN1CCO[C@H](c2ccccc2)c2ccccc2C1	inactive	
Oc1ccccc1N=Cc1ccc[nH]1	inconclusive: 25.1 µM [inhibitor, single point]	
COc1ccc(C2C=C(c3ccc(C)c(C)c3)Nc3ncnn32)c(OC)c1OC (configuration not stated)	inconclusive: 25.1 µM [inhibitor, single point]	
CCC(SC1=Nc2ccccc2C2=NC(CC(C)C)C(=O)N12)C(=O)Nc1ccc2c(c1)OCO2 (configuration not stated)	inconclusive: 31.6 µM [inhibitor, single point]	
CC(C)[C@H](NC(=O)OC(C)(C)C)c1nnc(S(=O)(=O)Cc2c(F)cccc2Cl)o1	inconclusive: 1.58 µM [inhibitor, full curve]	
COc1ccccc1C(OC(=O)c1cccs1)C(=O)NCc1ccco1 (configuration not stated)	inactive	
COCC(=O)Nc1nc(-c2ccccc2)c(C)s1	inconclusive: 39.8 µM [inhibitor, single point]	
O=C(O)c1cccc2cccc(-c3cccc4cccc(C(=O)O)c34)c12	inconclusive: 7.94 µM [inhibitor, single point]	
N#Cc1nc(Cc2cccc3ccccc23)oc1NCc1ccco1	inconclusive: 25.1 µM [inhibitor, partial curve]	
c1ccc2c(-n3ccnc3)nc(-c3ccoc3)nc2c1	inconclusive: 10 µM [inhibitor, partial curve]	
CCCN(CCC(=O)Nc1cc(OC)cc(OC)c1)CC1CC1	inconclusive: 3.98 µM [inhibitor, single point]	
CCCCn1c2nc3ccccc3nc2c2c(=O)n(CCC)cnc21	inactive	
CC(C)=CCC/C(C)=C/CO/N=C1/C[C@@H](O)[C@@H](O)[C@@H]2[C@H]3C(=O)N(c4ccc(F)cc4F)C(=O)[C@@H]3CC[C@@H]12		inactive: 5.74% [at 11.4 µM]
Cc1c(C(=O)Nc2ccncc2)oc2ccccc12	inactive	
O=C1OC2(CCCCC2)OC(=O)C1=CNc1ccc2c(c1)OCO2	inactive	
COC(=O)c1ccc(C(=O)OC)c(NC(=O)CCC(=O)O)c1	inactive	
CCN(CC)c1ccc2c(C)cc(=O)oc2c1	active: 31.6 µM	
CCOC(=O)c1ccc(-c2c(C(=O)OCC)oc3cc(O)c(CC)cc3c2=O)o1	active: 6.31 µM	
COCCCN1C(=O)c2[nH]nc(-c3cc(C)cc(C)c3O)c2C1c1ccc(O)c(OC)c1 (configuration not stated)	inactive	
CCC(=O)N(Cc1cc2cc(OC)ccc2[nH]c1=O)c1cccc(C)c1	inconclusive: 39.8 µM [inhibitor, single point]	
O=C(Nc1ccc(NC(=O)c2ccco2)nc1)c1ccccn1	inconclusive: 39.8 µM [inhibitor, single point]	
COc1ccccc1NC(=O)CSc1nnc(Cn2cnc3ccccc32)n1C	inactive	
CCCc1n[nH]c2c1/C(=N/O)CC(c1ccccc1)C2 (configuration not stated)	inconclusive: 1.58 µM [inhibitor, full curve, poor fit]	
O=C(CSc1ncn(-c2ccccc2)n1)N1CCc2ccccc21	inconclusive: 39.8 µM [inhibitor, single point]	

SMILES	Potency	activity change, negative = inhibition
COc1ccc(NC(=O)CNS(=O)(=O)c2cccc3nonc23)c(OC)c1	inconclusive: 25.1 µM [inhibitor, single point]	
COC(=O)c1sc2ccccc2c1C(=O)OC	inactive	
COc1ccc2c3c(cccc13)OCC2=O	inconclusive: 7.94 µM [inhibitor, full curve, poor fit]	
CCNc1ncc2nc(-c3ccccc3)c(=O)n(C)c2n1	active: 0.794 µM	
Cc1oc(C(=O)O)cc1CSCc1cc(C(=O)O)c(C)o1	inconclusive: 12.6 µM [inhibitor, partial curve]	
COc1ccc(-c2cc(NCCc3ccncc3)n3ncnc3n2)cc1	inconclusive: 31.6 µM [inhibitor, single point]	
CC(NC(=O)CC12CC3CC(CC(C3)C1)C2)C(=O)O (configuration not stated)	inactive	
CCCCCC(=O)N1CCN(CCN=CC2=C(O)CC(c3ccc(OC)cc3)CC2=O)CC1 (configuration not stated)	inactive	
COc1ccccc1CNc1ncncc1-c1ccc2c(c1)OCO2	inconclusive: 31.6 µM [inhibitor, single point]	
CN1CCc2cc(Cl)c(O)cc2[C@@H](c2ccccc2)C1	inconclusive: 25.1 µM [inhibitor, partial curve]	
Cc1cc(C)n(C(=O)CCCC(=O)n2nc(C)cc2C)n1	inactive	
CCCc1nc2oc3cc(OC)ccc3c(=O)c2c(=O)n1Cc1ccco1	inactive	
CCc1c(C)[nH]c2c1C(=O)C(CN1CCOCC1)CC2 (configuration not stated)	inactive	
CCn1c2ccccc2c2nnc(SCC(=O)NC(CC(C)C)C(=O)OC)nc21 (configuration not stated)	inactive	
COC(=O)C1=CN(CC2CCCO2)C=C(C(=O)OC)C1c1ccsc1 (configuration not stated)	active: 31.6 µM	
Nc1ccc(O)c([N+](=O)[O-])c1	inconclusive: 31.6 µM [inhibitor, partial curve]	
O=S(=O)(/N=S1/CC=CCN1S(=O)(=O)c1ccccc1)c1ccccc1 (configuration not stated)	inconclusive: 5.01 µM [inhibitor, partial curve]	
Clc1ccccc1-c1nc(N2CCNCC2)c2ccccc2n1	inconclusive: 25.1 µM [inhibitor, single point]	
CCCOC(=O)c1ccc(NC(=O)C2C3C=CC(O3)C2C(=O)O)cc1 (configuration not stated)	inactive	
Cc1nc(N2CCOCC2)c2nc(-c3ccccc3)n(CCN3CCCC3)c2n1	inactive	
Nc1nnc(N2CCCCC2)s1	inconclusive: 31.6 µM [inhibitor, single point]	
N=c1oc2ccc3ccccc3c2cc1-c1nnc2n1CCCCC2	active: 25.1 µM	
O=C1Nc2ccccc2OC1CC(=O)N1CCN(c2cccc(C(F)(F)F)c2)CC1 (configuration not stated)	inconclusive: 31.6 µM [inhibitor, single point]	
COc1cccc(-c2nn3c(-c4cccc(C)c4)nnc3s2)c1	inconclusive: 0.794 µM [inhibitor, full curve]	
Cc1noc(C)c1-c1cc(N(C)Cc2ccco2)ncn1	inconclusive: 7.94 µM [inhibitor, partial curve]	
